Data reported in the supplement of paper PMC4166925.
± gives the standard deviation of the averaged measurements. Over roughly 33,000 sequences, “E-score (dimensionless, -0.5 to 0.5)” has its median near -0.049; the highest 2% begin near 0.37. The list shows a part of the results.

system: T1, PmTbr T-box DNA-binding domain (GST fusion); test: PBM E-score of 8-mer (E-score (dimensionless, -0.5 to 0.5)); Tbr is Tbrain of the sea star Patiria miniata (Pm) or the sea urchin Strongylocentrotus purpuratus (Sp); higher = stronger binding preference; most listed sequences are background and not binding sites; conditions: the construct has about 5 more residues each side
T1 sequence: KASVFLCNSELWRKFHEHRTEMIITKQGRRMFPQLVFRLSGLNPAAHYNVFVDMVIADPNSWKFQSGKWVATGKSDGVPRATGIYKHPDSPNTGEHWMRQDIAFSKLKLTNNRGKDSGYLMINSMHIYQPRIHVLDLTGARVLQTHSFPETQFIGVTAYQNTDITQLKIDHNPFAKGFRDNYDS
Outline: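 Using the Universal PBM Analysis Suite, every ungapped 8-mer received an enrichment E-score averaged over duplicate arrays. Probe intensities came from double-stranded Universal Agilent oligonucleotide arrays incubated with 200 nM GST-fused Tbr T-box DNA-binding domain in PBS (pH 7.5). That protein was expressed in BL21 E. coli at 20 °C and purified by glutathione affinity chromatography.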

Sequence | PBM E-score of 8-mer
AATCTATC | -0.00253 ± 0.044
AACTGGAT | 0.0381 ± 0.023
ACTGAGGC | 0.0455 ± 0.032
AATACTCC | -0.103 ± 0.0049
CAGTGCCC | -0.185 ± 0.073
CTTATCCC | -0.104 ± 0.028
CGTCGGGC | 0.0223 ± 0.047
GAACTAAC | 0.162 ± 0.014
GCCTCTAA | -0.0699 ± 0.027
CGATAACC | 0.221 ± 0.032
CCTTTCCA | -0.0302 ± 0.05
ATCCATCA | -0.125 ± 0.087
GGTCAGAC | -0.225 ± 0.018
ATTTTGTC | 0.194 ± 0.045
GGCGAGAC | 0.231 ± 0.019
CAGTCGAA | -0.214 ± 0.037
AAGTTATT | -0.22 ± 0.052
ACGCTAAA | 0.191 ± 0.064
GGCCATCA | -0.292 ± 0.044
ACCTTCAT | 0.201 ± 0.039
GATCTGAA | -0.0563 ± 0.034
CCTAGGAA | -0.3269 ± 0.0029
ATAAAGTG | 0.235 ± 0.088
AATGGAAT | -0.251 ± 0.029

Sequence | PBM E-score of 8-mer
CCTTTACG | -0.243 ± 0.017
CTGAAGCC | -0.175 ± 0.013
GATGTCTA | -0.212 ± 0.006
CAGTACGC | -0.151 ± 0.055
CTGACTCA | -0.0288 ± 0.013
ATAGTTTC | -0.139 ± 0.033
CAATGTGG | 0.0718 ± 0.076
ACTAGATA | -0.12 ± 0.015
CAGATGAC | -0.0423 ± 0.069
AACGGCAT | -0.154 ± 0.03
ACAACAGT | 0.0982 ± 0.0056
ACTCAAAC | -0.241 ± 0.066
GACTTACC | -0.15 ± 0.018
CTCAGCGC | 0.119 ± 0.015
GGGGGGTA | -0.279 ± 0.061
AACAATTG | 0.2 ± 0.064
GGCCCCCA | -0.286 ± 0.064
CTACTAGC | 0.0573 ± 0.034
ACGACCCC | -0.153 ± 0.12
GATGCTGA | -0.0763 ± 0.018
ACGGAAAG | -0.123 ± 0.013
GACGCTAC | 0.0711 ± 0.045
ACTAACCT | -0.0151 ± 0.031
CTTACCAA | -0.152 ± 0.0032

Sequence | PBM E-score of 8-mer
CTATACCC | -0.123 ± 0.056
TGTCACAA | 0.369 ± 0.04
CCAACACG | 0.274 ± 0.0077
GCCTGTCC | -0.168 ± 0.029
CGGACGAG | -0.166 ± 0.0031
AATGAATA | -0.109 ± 0.078
GTACCGCA | -0.144 ± 0.035
TCTTCACA | 0.377 ± 0.015
CGCACAAC | 0.119 ± 0.1
ATCTCCGA | -0.283 ± 0.029
GTGATATA | 0.228 ± 0.0044
CACCTAGC | 0.418 ± 0.0047
ACTGAGTC | -0.0611 ± 0.06
ATGAAGCC | -0.291 ± 0.026
AGGAATTG | -0.0432 ± 0.0082
GGCCGCGA | 0.059 ± 0.048
CCGAGTAG | -0.171 ± 0.034
ATCCCGGG | 0.00312 ± 0.013
CAGCTGAA | -0.024 ± 0.019
AGTACCCA | -0.177 ± 0.032
TCCTTAAA | -0.212 ± 0.013
CTGCTCCC | -0.0484 ± 0.044
AAAAGCTA | -0.101 ± 0.02
ATAAAGTA | -0.0182 ± 0.067

Sequence | PBM E-score of 8-mer
CACCCTCA | 0.298 ± 0.0064
ACGCCCGG | 0.0945 ± 0.077
GGGTTTTA | -0.211 ± 0.095
CGGGGCTA | -0.258 ± 0.01
AAGTCTTG | 0.0645 ± 0.0093
CTTTACTC | -0.0347 ± 0.045
CTCCAAGC | -0.0496 ± 0.044
GGGCGCGA | 0.409 ± 0.02
AGAGGAAG | -0.183 ± 0.071
CATACATG | -0.123 ± 0.0066
ATGTTACG | 0.1 ± 0.0049
ACTCGCAA | 0.279 ± 0.018
CAGCCTCC | -0.255 ± 0.081
CCCGCGGC | -0.0345 ± 0.072
CCCTCAGC | -0.0931 ± 0.0017
AAATCACG | 0.209 ± 0.011
AGCCCCGG | -0.359 ± 0.042
GGCCTCAA | -0.252 ± 0.027
GATCAACA | 0.133 ± 0.01
CGTGAGAC | 0.258 ± 0.044
AAACCTGG | 0.119 ± 0.037
CACGAGCA | -0.0317 ± 0.022
